Assay results published in PubChem BioAssay AID624296 (National Center for Advancing Translational Sciences (NCATS), 2012).
The campaign covered roughly 350,000 compounds. About 9,900 (2.8%) were called active. Inconclusive means that the source gave no clear call. Such entries were picked first, then a sample of the others. Calls follow the shape of the dose curve; as a rule, active = well fitted activation curve with a large enough effect; inconclusive = small, poorly fitted or top-dose-only effect; inactive = no such curve, though single readings can be large or run the other way. Potencies of inconclusive entries are left out as doubtful fits.
Potency is read from the fitted curve at half-maximal effect; tags tell the direction and shape of the fitted curve.

Test: A quantitative high throughput screen for small molecules that induce DNA re-replication in MCF 10a normal breast cells. Also: nearly all actives have a fitted effect of over 50% in size. As to activity, positive = re-replication: % of control where 0% means no effect.
Settings: MCF 10A DNA re-replication, Hoechst nuclear intensity, 48 h; activity, positive = re-replication: at 46.1 µM (top of the series)
In the case of `CCOC(=O)c1c(C=O)c2ccccc2n1CC`, the Potency is reported as “inactive”.
With `CCN1CNC(=S)N(Cc2ccccc2)C1` the Potency was “inactive”.
In the case of `N#Cc1c(NC(=O)c2ccc(Cn3cc(Br)cn3)o2)sc2c1CCCCC2`, the Potency is reported as inconclusive [activator, partial curve, poor fit].
In the case of `Fc1ccc(CSc2nnc(-c3cc4c(s3)-c3ccccc3CC4)o2)cc1`, the Potency is reported as inconclusive [activator, full curve].
For `CN1CCN(CCCNC(=O)CCN2C(=O)COc3ccccc32)CC1`, the Potency was “inactive”.
In the case of `Cc1cccc(/C=N/NC(=O)c2ccc(NC(=O)c3ccc(F)cc3)cc2)n1`, the Potency is reported as active: 20.6 µM.
In the case of `Cc1ccc(C(C(=O)NC(C)(C)C)N(Cc2cccs2)C(=O)c2ccc3c(c2)OCCO3)cc1` (stereo unspecified), the Potency is reported as “inactive”.
With `COc1ccccc1C(=O)Nc1ccc(C(=O)/C=C/c2cccs2)cc1` the Potency was inconclusive [activator, single point].
For `O=C(c1cccs1)N1CCN(Cc2cn[nH]c2-c2ccc(F)cc2F)CC1`, the Potency was “inactive”.
In the case of `Cc1ccnc(NC(c2cccnc2)c2ccc3cccnc3c2O)c1` (stereo unspecified), the Potency is reported as inconclusive [activator, single point].
For `O=C1NCCN(Cc2cccc(Oc3ccccc3)c2)C1CC(=O)N1CCCCO1` (stereo unspecified), the Potency was “inactive”.
For `C/C(=N\NC(=S)Nc1cc(S(=O)(=O)N2CCOCC2)ccc1Cl)c1ccc(N2CCOCC2)cc1`, the Potency was “inactive”.
With `CC(C)(C)c1ccc(OCC(=O)Nc2ccc(-c3nc4cccnc4o3)cc2)cc1` the Potency was active: 16.4 µM.
For `CCc1ccc(-c2cc(C)no2)cc1S(=O)(=O)N1CCN(c2cccc(C)c2C)CC1`, the Potency was inconclusive [activator, full curve].
With `O=C(Nc1ccc(Cc2ccncc2)cc1)C1CC1` the Potency was inconclusive [activator, partial curve, poor fit].
With `CCC(c1nnnn1C1CCCC1)N(Cc1cccs1)Cc1cc2cccc(C)c2[nH]c1=O` (stereo unspecified) the Potency was inconclusive [activator, single point].
In the case of `C=C1C(=O)O[C@H]2C1CC[C@@](C)(O)C13C=CC(C)(C21)C1(C3)C(=O)O[C@@H]2C3C(C)=CCC3[C@](C)(O)C[C@H](OC(C)=O)C21` (stereo partly specified), the Potency is reported as inconclusive [activator, single point].
With `CC(=O)c1cccc(CN2CCCC(CCC(=O)NCc3ccccc3F)C2)c1` (stereo unspecified) the Potency was “inactive”.
In the case of `Cc1cc(Cl)n2ncc(-c3ccccc3)c2n1`, the Potency is reported as inconclusive [activator, partial curve, poor fit].
For `COc1ccc(C(=O)Nc2nc3cc(OC)c(OC)cc3c(=O)[nH]2)cc1`, the Potency was inconclusive [activator, partial curve, poor fit].
With `Cc1c(C(=O)OCC(=O)Nc2ccc(N3CCOCC3)cc2)oc2ccccc12` the Potency was inconclusive [activator, single point].
With `O=C1/C(=C\c2ccc3c(c2)OCO3)CCC/C1=C/c1ccc2c(c1)OCO2` the Potency was active: 11.6 µM.
In the case of `Cc1noc(C)c1CSc1nc2ccccc2c(=O)n1-c1ccc(F)cc1F`, the Potency is reported as active: 13 µM.
With `Nc1ccc(Cc2ccc([N+](=O)[O-])cc2)cc1` the Potency was “inactive”.
With `S=C(NCc1ccncc1)Nc1ccc(Br)cc1` the Potency was “inactive”.
With `O=C(NCc1ccco1)c1cccc(NC(=O)c2ccco2)c1` the Potency was inconclusive [activator, partial curve, poor fit].
In the case of `CCN1CCN(c2ccc(NC(=O)c3cc(S(=O)(=O)N4CCCC4)ccc3Cl)cc2)CC1`, the Potency is reported as “inactive”.
For `CCOC(=O)c1c(NC(=O)c2ccccc2N(C)S(=O)(=O)c2ccccc2)sc2c1CCCC2`, the Potency was inconclusive [activator, partial curve, poor fit].
In the case of `C=CCN(C(=O)CCC(=O)Nc1cc(C)on1)C(C(=O)NC1CCCC1)c1ccc(OC)cc1OC` (stereo unspecified), the Potency is reported as “inactive”.
In the case of `CCOc1ccc(C(C(=O)NCC2CCCO2)N(C(=O)c2snc(C(N)=O)c2N)c2cccc(F)c2)cc1` (stereo unspecified), the Potency is reported as inconclusive [activator, single point].
For `O=C(NC12CC3CC(CC(C3)C1)C2)c1ccccc1O`, the Potency was active: 8.2 µM.
With `Cc1ccc(Oc2ccc(OCC(=O)NC(C)C(=O)O)cc2)cc1` (stereo unspecified) the Potency was “inactive”.
In the case of `FC(F)Sc1ccc(-n2c(-c3ccc(Cl)cc3)c[n+]3c2CCC3)cc1`, the Potency is reported as inconclusive [activator, partial curve, poor fit].
In the case of `COc1ccccc1CNC(=O)CN1C(=O)N(C)C2(CCCCC2)C1=O`, the Potency is reported as “inactive”.
With `CN(Cc1cccc(Cl)c1Cl)C(=O)c1cc(S(=O)(=O)N2CCOCC2)ccc1F` the Potency was inconclusive [activator, single point].
In the case of `CC(NC(=O)/C(C#N)=C/c1ccc([N+](=O)[O-])o1)c1ccccc1` (stereo unspecified), the Potency is reported as active: 3.66 µM.
In the case of `CC(Oc1cccc(Cl)c1)C(=O)NC1CC(C)(C)NC(C)(C)C1` (stereo unspecified), the activity, positive = re-replication is reported as inconclusive: 24% [activator].
With `ClC1(Cl)CC1Cn1c(C2CC2)nc2ccccc21` (stereo unspecified) the Potency was inconclusive [activator, single point].
With `O=c1[nH]c(=O)n(-c2cc(Br)c(O)c(Br)c2)cc1Br` the Potency was “inactive”.
In the case of `O=C1C=C(c2cnc3ccccc3c2)C[C@@H](c2ccc3c(c2)OCO3)C1`, the Potency is reported as inconclusive [activator, full curve, poor fit].
For `Cc1cc(=O)n2[nH]c(-c3ccc(C(C)(C)C)cc3)cc2n1`, the Potency was inconclusive [activator, partial curve, poor fit].
In the case of `CCOc1ccc(-n2cc(-c3ccc(OC)c(OC)c3)[nH]c2=S)cc1`, the Potency is reported as “inactive”.
With `CC(Sc1nnc2ccccn12)C(=O)NCc1ccc2c(c1)OCO2` (stereo unspecified) the Potency was inconclusive [activator, single point].
With `O=C(c1nn(Cc2ccccc2)c(=O)c2ccccc12)N1CCN(C/C=C/c2ccccc2)CC1` the Potency was inconclusive [activator, partial curve].
With `Cc1ccc(-c2c3c(=O)n(C)c(=O)n(C)c3cn2N2CCOCC2)cc1` the Potency was inconclusive [activator, full curve, poor fit].
With `CCCC1=Nc2cc(C(=O)NCCCOCC)ccc2Sc2ccccc21` the Potency was inconclusive [activator, full curve, poor fit].
In the case of `Cc1nc2c(C)cccn2c(=O)c1NC(=O)c1ccco1`, the Potency is reported as “inactive”.
For `COc1ccccc1CNS(=O)(=O)c1ccc(-c2cc(C)no2)cc1`, the Potency was inconclusive [activator, partial curve].
In the case of `Cc1cc(NC(=O)c2cc(-c3ccco3)on2)nn1Cc1ccc(Cl)cc1`, the Potency is reported as “inactive”.
With `Cc1ccc(-n2cnc3c(=O)[nH]cnc32)cc1` the Potency was “inactive”.
For `CC(NC(=O)c1cc2c(=O)n(C)c3ccccc3c2n1C)c1ccc2c(c1)OCCO2` (stereo unspecified), the Potency was “inactive”.
With `O=C(COC(=O)/C=C/c1ccc(S(=O)(=O)N2CCOCC2)cc1)NCc1ccc(F)cc1` the Potency was inconclusive [activator, single point].
With `O=C(COc1ccc2ccccc2c1Br)N1CCN(c2ccccn2)CC1` the Potency was “inactive”.
With `Cc1ccc(C)n1-c1ccc(N(C)C)cc1` the Potency was inconclusive [activator, single point].
With `Cc1nn(CCC(=O)NNC(=S)NCC(C)C)c(C)c1Br` the Potency was “inactive”.
For `Cc1ccc(-c2nc3ccccc3[nH]2)cc1NC(=O)c1sc2ccccc2c1Cl`, the Potency was active: 20.6 µM.
In the case of `CCN1CCCC1CNC(=O)c1ccc2c(c1)NC(=O)/C(=C\c1ccc(OC)c(OC)c1)S2` (stereo unspecified), the Potency is reported as inconclusive [activator, partial curve, poor fit].
In the case of `CN(C(=O)c1ccc(NC(=O)Cc2cccc(NC(=O)C3CCN(C(=O)C4CCCC4)CC3)c2)cc1)C1CC1`, the Potency is reported as inconclusive [activator, single point].
In the case of `Cc1ccc(-c2csc(NC(=O)c3ccc4c(=O)n5c(nc4c3)CCCCC5)n2)cc1`, the Potency is reported as inconclusive [activator, full curve].
For `COc1ccc(C(=O)N2CCN(c3ccc([N+](=O)[O-])c(-n4nc(C)cc4C)c3)CC2)cc1`, the Potency was “inactive”.
With `CCC(CC)c1nnc(NC(=O)CN2C(=O)C3C4C=CC(C4)C3C2=O)s1` (stereo unspecified) the Potency was inconclusive [activator, single point].
In the case of `Cc1ccc(S(=O)(=O)N2CCN(C(=O)COC(=O)c3cnc(C)cn3)CC2)c(C)c1`, the Potency is reported as “inactive”.
In the case of `O=C1C=C(NCCc2cc(Br)c(O)c(Br)c2)C(=O)c2ncccc21`, the Potency is reported as inconclusive [activator, full curve, poor fit].
In the case of `O=c1[nH]c2ccccc2c2oc(CCl)nc12`, the Potency is reported as active: 20.6 µM.
In the case of `COc1cc(N(Cc2ccccc2)Cc2ccccc2)c2ncn(C(C)C)c2c1`, the Potency is reported as inconclusive [activator, partial curve, poor fit].
With `O=C(/C=C/c1ccco1)NC(=S)Nc1nc(-c2ccc3ccccc3c2)cs1` the Potency was active: 1.16 µM.
In the case of `COc1cc(C(=O)N2CCCc3ccccc32)c([N+](=O)[O-])cc1OC`, the Potency is reported as active: 16.4 µM.
For `COC(=O)CSc1ccnc2cc(Cl)ccc12`, the Potency was inconclusive [activator, full curve, poor fit].
For `Cc1nc2ccccc2nc1CN1CCN(Cc2ccc(F)c(F)c2)C(CCO)C1` (stereo unspecified), the Potency was inconclusive [activator, single point].
In the case of `Cc1ccc(C2/C(=C(\O)c3c(C)nc4ccccn34)C(=O)C(=O)N2CCN(C)C)o1` (stereo unspecified), the Potency is reported as inconclusive [activator, partial curve, poor fit].
For `CC(C)COc1ccc(CNC(=S)N/N=C/c2ccc([N+](=O)[O-])cc2)cc1`, the Potency was inconclusive [activator, single point].
